The labels stand for the following.
B1: TPR 5TU (parent)
chain: GGAUCUUCUCGAUCUAACAAAAAAGACAAAUCUGCCACAAAGCUUGAGAGCAUCUUCGGAUGCAGAGGCGGCAGCCUUCGGUGGCGCGAUAGCGCCAACGUUCUCAACUAUGACACGCAAAACGCGUGCUCCGUUGAAUGGAGUUUAUCAUG

Variants at the floor of the assay are shown more often than the library holds them. A value given as a limit tells only on which side of the number the result lay.

The variants in the data set derive from B1. In words: polymerase ribozyme fitness, log enrichment relative to wild type (log ratio); higher = more active; in vitro selection for triplet polymerase activity. A digest of the protocol:
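For each subunit of a heterodimeric triplet polymerase ribozyme, a mutant library was built by PCR and transcribed, then taken through a single in vitro selection round in triplicate. Selection involved annealing to a biotinylated primer, the partner subunit and triplets, incubation frozen at −7 °C, gel excision of extended constructs, capture on streptavidin beads and RT-PCR. Genotypes were retained after Illumina sequencing of inputs and outputs only with ≥10 input reads and ≥1 read in each output. Fitness is defined as the logarithm of a genotype's enrichment relative to wild-type enrichment, using inverse-variance-weighted averages across replicates, with the logarithm taken to base 2.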
With GGAUCUUCUCGAUCUAACAAAAAAGACAAAUCUGCCACAAAGCUUGAGAGCAUCUUCGGAUGCAGAGGCGCCAGCCUUCGGUGGCGCGAUUGUGCCAACGUUCGCAACUAUGACACGCAAAACGCGUGCUCCGUUGAAUGGAGUUUAUCAUG [G71C A91U C93U U104G], the “polymerase ribozyme fitness (log ratio)” value is not above -4.2.

GGAUCUUCUCGAUCUAACAAAAAAGACAAAUCUGCCACAAAGCUUGAGAGCAUCUUCGGAUGCAGAGGCAGCAGCCUUCGGUGGCGCGAUAGCGCUAACGUUCUCAACUAUGACACGCAAAACGCGUGCUCCGUUGAAUGGAGUUUAUCAUG [G70A C96U]: the “polymerase ribozyme fitness (log ratio)” value was -2.89. As for GGAUCUUCUCGAUCUAACAAAAAAGACAAAUCUGCCACAAAGCUUGAGAGCAUCUUCGGAUGCAGAGGCCGCAGCCUUUGGUGGCGCGAUAGCCCCAACGUUCUCAACUAUGACACGCAAAACGCGUGCUCCGUUGAAUGGAGUUUAUCAUG [G70C C79U G94C], the figure is not above -4.2; as for GGAUCUUCUCGAUCUAACAAAAAAGACAAAUCUGCCACAAAGCUUGAGAGCAUCUUCGGAUGCAGAGGCAGCAGCCUUCGGUGACGGGAUAGCGCCAACGUUCUCAACUAUGCCACGCAGAACGCGUGCUCCGUUGAAUGGAGUUUAUCAUG [G70A G84A C87G A113C A120G], not above -4.2; as for GGAUCUUCUCGAUCUAACAAAAAAGACAAAUCUGCCACAAAGCUUGAGAGCAUCUUCGGAUGCAGAGGCUGCAGCAUUCGGUGGCGCGAUAGCGCCAACGUUCUCAACUAUGACACGCAAAACGCGUGCUCCGUUGAAUGGAGUUUAUCAUG [G70U C76A], -4.19. As for GGAUCUUCUCGAUCUAACAAAAAAGACAAAUCUGCCACAAAGCUUGAGAGCAUCUUCGGAUGCAGAGGCAACAGCCUUCGGUGGCGUGAUAGCGCCAACGUUCUCAACUAUGACACGCAAAAUGCGUGCUCCGUUGACUGGAGUUUAUCAUG [G70A G71A C87U C123U A138C], the figure is not above -4.2. In the case of GGAUCUUCUCGAUCUAACAAAAAAGACAAAUCUGCCACAAAGCUUGAGAGCAUCUUCGGAUGCAGAGGCAGCAGCCUUCGGUCGCGCGAUAGCAUCAACGUUCUCAUCUAUGACACGUAAAACGCGUGCUCCGUUGAAUGGAGUUUAUCAUG [G70A G83C G94A C95U A107U C118U] it was not above -4.2; in that of GGAUCUUCUCGAUCUAACAAAAAAGACAAAUCUGCCACAAAGCUUGAGAGCAUCUUCGGAUGCAGAGGCGCCAGCCUUCGGUGGCACGAUAGCGCCAACGUUCUCAACGAUGACACGCAAAACGCGUGCUCCGUUGAAUGGAGUUUAUCAUG [G71C G86A U109G], not above -4.2; in that of GGAUCUUCUCGAUCUAACAAAAAAGACAAAUCUGCCACAAAGCUUGAGAGCAUCUUCGGAUGCAGAGGCAGCAGCCUUCGGUGGCGCCAUAGCGCCAACGUUCUCAACUAUGACACGCAAAACGCGUGCUCCGUUGAAUGGAGCUUAUCAUG [G70A G88C U144C], not above -4.2. For GGAUCUUCUCGAUCUAACAAAAAAGACAAAUCUGCCACAAAGCUUGAGAGCAUCUUCGGAUGCAGAGGCCGCAGCCUUCGGUGGCGCGAUAGCGCCAACGUUCUCAACUAUGACACGCAAAACGCGUGCUCCGUUGAAUGGCGUUUAUCAUG [G70C A142C], the “polymerase ribozyme fitness (log ratio)” value was -3.72. On to GGAUCUUCUCGAUCUAACAAAAAAGACAAAUCUGCCACAAAGCUUGAGAGCAUCUUCGGAUGCAGAGGCAGCAGCCUUCGGUGGCGCGAUAGCGUCAACGUUCUCAACUAUGACACGCAAAACGCGUGCUCCGUUGAAUGGAGCUUAUCGUG [G70A C95U U144C A150G], for which the “polymerase ribozyme fitness (log ratio)” value is not above -4.2. For the variant GGAUCUUCUCGAUCUAACAAAAAAGACAAAUCUGCCACAAAGCUUGAGAGCAUCUUCGGAUGCAGAGGCCGCAGCCUUCGGUGGCGCGAUAGCGCCAACGUUCUCAACUAUGACACGGAAAACGCGUGCUCCGUUGAAUGGAGUUUAUCAUG [G70C C118G], the “polymerase ribozyme fitness (log ratio)” value was not above -4.2. With GGAUCUUCUCGAUCUAACAAAAAAGACAAAUCUGCCACAAAGCUUGAGAGCAUCUUCGGAUGCAGAGGCAGCAGCCUUCGGUGGCGCGAUAGCGCCAACGUUCUCAACUAUGACACGCAAAACGCGUGCUCCGUUGAAAGAACUUUAUCAUG [G70A U139A G141A G143C], the “polymerase ribozyme fitness (log ratio)” value was not above -4.2. As for GGAUCUUCUCGAUCUAACAAAAAAGACAAAUCUGCCACAAAGCUUGAGAGCAUCUUCGGAUGCAGAGGCGACAGCCUUCGGUGGCGCGAUAGCGCCAUCGGUCUCAACUAUGACACGCAAAACGCGUGCUCCGUUGAAUGAAGUUUAUCAUG [G71A A98U U101G G141A], the figure is not above -4.2; as for GGAUCUUCUCGAUCUAACAAAAAAGACAAAUCUGCCACAAAGCUUGAGAGCAUCUUCGGAUGCAGAGGCUGCGGCCUUGGGUGGCGCGAUUGCGCCAACAUUCUCAACUAUGACACGCAAAACGCGUGCUCCGUUGAAUGGAGUUUAUCAUG [G70U A73G C79G A91U G100A], not above -4.2; as for GGAUCUUCUCGAUCUAACAAAAAAGACAAAUCUGCCACAAAGCUUGAGAGCAUCUUCGGAUGCAGAGGCGCCAGCCUUCGGUGGCGCGAUCGCGACAACGUUAUCAACUAGGACACGCAAACCGCGUGCUCCCUUGAAUUGAGUUUAUCAUG [G71C A91C C95A C103A U111G A122C G133C G140U], not above -4.2.

Turning to GGAUCUUCUCGAUCUAACAAAAAAGACAAAUCUGCCACAAAGCUUGAGAGCAUCUUCGGAUGCAGAGGCGCCAGCCUUCGGUGGCGCGAUAGCGUCAACGUUCUCAACUAUGACACGCAAAACGCGUGCUCUGUUGAAUGAAGUUGAUCAUG [G71C C95U C132U G141A U146G], the “polymerase ribozyme fitness (log ratio)” value is not above -4.2. In the case of GGAUCUUCUCGAUCUAACAAAAAAGACAAAUCUGCCACAAAGCUUGAGAGCAUCUUCGGAUGCAGAGGCGACAGCCUUCGGUGGCGCGUUAGAGCCAACGUCCUCAACUAUGACACGCAAAACGCGUGCUCCUUUGAAUGGAGUUUACCAUG [G71A A89U C93A U102C G133U U148C] it was not above -4.2; in that of GGAUCUUCUCGAUCUAACAAAAAAGACAAAUCUGCCACAAAGCUUGAGAGCAUCUUCGGAUGCAGAGGCAGCAACCUUCGGUGGCGCGAUAGCGCCAACGGUCCCAACUAUGACACGCAAAACGCGUGCUCCGUUGAAUGGAGUUUUUCAUG [G70A G74A U101G U104C A147U], not above -4.2.
